Laboratory results published in ChEMBL document CHEMBL4888484, “Replenishing the malaria drug discovery pipeline: Screening and hit evaluation of the MMV Hit Generation Library 1 (HGL1) against asexual blood stage Plasmodium falciparum ,using a nano luciferase reporter read-out” (2022).
In all, about 150,000 compounds went through this assay and about 540 (0.36%) showed an effect of 50% or more. The list shows a part of the results.

system: Plasmodium falciparum; experiment: Primary screen in NF54 nanoGlo assay, in single point, at 2uM, 72h; a lower Z score goes with more inhibition; assay type: functional, Erythrocyte; conditions: timepoint 72 hour

Row | SMILES | % Inhibition | Z score
1 | Cc1nn(C)c2nc(N3CCC[C@@]4(CCCO4)CC3)sc12 | 3% | -0.52
2 | O=C(Cn1cc(-c2ccccc2)ncc1=O)N1CCOCC1 | 1% | -0.16
3 | CN1C(C(=O)Nc2ccccc2C(F)(F)F)CC(c2ccc(F)cc2)NS1(=O)=O (stereo not drawn) | -3% | 0.44
4 | Cc1cnn([C@@H](C)CNS(=O)(=O)CC2CCCC2)c1 | 3% | -0.34
5 | CC(CNS(=O)(=O)C[C@H]1C[C@H]2CCCC[C@H]21)c1nccs1 (stereo partly drawn) | -1% | 0.14
6 | CN1CCc2c(NC(=O)NCCc3ccc(O)cc3)cccc21 | -2% | 0.17
7 | CO[C@H]1CCCN(C(=O)c2c(C)oc3ccc(OCc4ccccc4)cc23)C1 | -27% | 2.61
8 | CN(c1cccc(CCC(=O)O)c1)S(=O)(=O)N1CCc2ccccc2C1 | 0% | -0.02
9 | Cn1cc(C#N)cc1C(=O)N1CC[C@@]2(CCCN(C3CCCCC3)C2=O)C1 | 2% | -0.29
10 | CC(C)CCC(=O)N1CCN(c2nc3cccnc3n(C)c2=O)CC1 | -12% | 2.24
11 | NC(=O)N1CCCC(C(=O)N2C[C@@H]3[C@H](C2)[C@H]3NC(=O)C(C2CC2)C2CC2)C1 (stereo partly drawn) | -6% | 0.82
12 | CCc1ccc(C(=O)N2CC[C@H](CC(=O)NCc3ccccc3)C2)cc1 | 33% | -4.72
13 | CC1CCN([C@@H](CNC(=O)c2ccc(CCNS(C)(=O)=O)s2)c2cccs2)CC1 | 19% | -2.38
14 | CC(C)n1ncc2ccc(N3C(=O)[C@@H]4CCCCN4C3=O)cc21 | 1% | -0.23
15 | CC[C@H](C)N(Cc1ccc(OC)c(OS(=O)(=O)c2cccc(C(F)(F)F)c2)c1)C(=O)c1cc(C(F)(F)F)cc(C(F)(F)F)c1 | -6% | 0.66
16 | C[C@@H](CS(C)(=O)=O)OC(=O)c1cnn(C(C)(C)C)c1 | 7% | -0.96
17 | COc1cc([C@H]2N(S(=O)(=O)c3ccccc3)CCN2S(=O)(=O)c2ccc(C)cc2)ccc1CS(=O)(=O)c1ccccc1 | -5% | 0.72
18 | O=S1(=O)CCN(c2cc(NCc3cncs3)ccc2F)CC1 | -14% | 1.45
19 | O=S1(=O)CCCC[C@@H]1CNCc1csnn1 | 2% | -0.31
20 | CC(C)N(CC(N)=O)CC1CC2C=CC1C2 (stereo not drawn) | -10% | 1.56
21 | C[C@H]1CN(CC(=O)N2CCNC2=O)CCN1c1ccc2nncn2n1 | -6% | 1.03

Row | SMILES | % Inhibition | Z score
22 | Cc1ccc(NCCC(=O)N2CCOC[C@H]2c2ncnn2C)cc1Cl | -6% | 0.79
23 | Cn1ccnc1CCN1CCC(c2cc(Cc3ccccc3)n[nH]2)CC1 | -5% | 0.94
24 | CCCc1nnc(N2CCCC3(CCNCC3)CC2)s1 | -3% | 0.44
25 | O=C(N[C@H]1CCOc2ccccc21)c1ccc2c(c1)OCCO2 | -7% | 1.08
26 | Cn1cnnc1C1CCN(S(=O)(=O)CC2CC3CCC2C3)C1 (stereo not drawn) | -4% | 0.56
27 | N#Cc1ccc(OCc2csc(-c3ncccn3)n2)c(Cl)c1 | -2% | 0.26
28 | CCC1(CC)CNC(=O)[C@H]1NC(=O)c1nsc2ccccc12 | -3% | 0.49
29 | Cc1cc(C)n(CC2CCN(Cc3cc(C#N)cs3)CC2)n1 | -7% | 1.18
30 | Cc1noc(C2(NC(=O)Nc3cnc(CC(C)C)nc3)CCOCC2)n1 | 3% | -0.44
31 | CC(C)[C@H](CNC(=O)c1ccc(Cl)cc1)c1ccnn1C | 1% | -0.13
32 | COCCNC(=O)c1cc2c(n1C)CCN(Cc1cccc(OC)c1)C2 | 17% | -1.97
33 | O=C(c1cccc(C(F)(F)F)c1)N1CCc2[nH]cnc2C12CCCC2 | -14% | 1.81
34 | Cc1cccc2c1nc(CCO)n2-c1cnc(N)cn1 | 5% | -1.01
35 | Clc1cc(CN2CC[C@@]3(CCCOC3)C2)ccc1OCCN1CCOCC1 | 39% | -1.21
36 | Cc1cc(CS(=O)(=O)N2CCCCC[C@H]2c2ccccc2)no1 | 0% | -0.05
37 | Cc1ccc(C(=O)N2CCC3(CC2)C[C@H](CO)N(C(=O)c2ccccc2)C3)s1 | -8% | 1
38 | CCCC(=O)N1CC[C@@]2(CCCN(Cc3cccc(C)c3)C2)C1 | -10% | 1.77
39 | Cc1ncsc1CN(Cc1ccccc1)C(=O)CCc1c(C)nn(C)c1C | -14% | 2.67
40 | Cc1cnc(OC2CCN(Cc3nc(C)cs3)CC2)nc1 | -4% | 0.81
41 | N#Cc1ccc(Cn2ccncc2=O)c(F)c1 | -7% | 0.87
42 | C[C@H]1CN(S(=O)(=O)c2ccc3c(c2)CCC3)CCO1 | 7% | -0.57

Row | SMILES | % Inhibition | Z score
43 | CCN1CCN(c2c(CN(CCOC)C(=O)COc3ccccc3)c(C)nn2-c2cccc(F)c2)CC1 | 1% | -0.11
44 | CN1CC[C@@]2(CCC1=O)CN(C(=O)CCC(F)(F)F)CCN2C | -1% | 0.14
45 | Cc1ccc(NC2=NC(=O)C[C@@H](C(=O)Nc3ccc(C)c(C)c3)N2)cc1 | -16% | 2.05
46 | COc1cccc(OCCNc2cc(N3CCC[C@@H]3CO)ncn2)c1 | 25% | -3.33
47 | O=C1CN(C(=O)NCC(F)(F)c2ccccc2)C2CCCCC2N1 (stereo not drawn) | -9% | 1.2
48 | COC(=O)c1ccc(C(=O)N2CCC(N3CC[C@H](OC)C3)CC2)cc1 | -11% | 1.35
49 | C[C@H]1CN(C(=O)NCC2(C(F)(F)F)CCC2)CC(=O)N1 | -5% | 0.7
50 | CCOC(=O)C1CCC(CN(Cc2c(Cl)cccc2Cl)S(=O)(=O)c2ccc(C)cc2)CC1 (stereo not drawn) | 19% | -2.53
51 | O=C(NCCc1ccco1)c1cc(=O)c2cccc(F)c2[nH]1 | -8% | 1.1
52 | Cc1nc(C)c([C@H](C)NC(=O)Nc2cc(Br)ccc2N2CCOCC2)s1 | 0% | 0.05
53 | Cc1nn(C)c(C(=O)NCC[C@H]2CCOC2)c1Cl | -5% | 0.85
54 | CCS(=O)(=O)N1CCC(CNC(=O)c2cnc3ccccn3c2=O)CC1 | -4% | 0.52
55 | CN(C)C(=O)N1CCc2[nH]nc(-c3cccc4c3OC(F)(F)O4)c2C1 | -11% | 1.72
56 | CN1CCN(Cc2nc(-c3ccco3)no2)CC1 | -3% | 0.43
57 | Cc1nc(O)cc(CNC(=O)c2nc(C(C)C)cs2)n1 | 9% | -0.82
58 | CCc1n[nH]cc1C(=O)NCc1cc2c(nc1OC)CN(C1CCCC1)C2=O | 10% | -1.32
59 | CCOc1ccccc1N1CCN(c2ncc3c(=O)n(C4CCCC4)c(=O)[nH]c3n2)CC1 | -2% | 0.27
60 | Cc1ccccc1C1CC1C(=O)N1CCNC(C)C1 (stereo not drawn) | 0% | -0.06
61 | Cc1cc2c(cc1C(=O)NCCc1nc3ccccc3c(=O)[nH]1)OCCO2 | -2% | 0.14
62 | CC1(C)COCCN1C(=O)C1=CCCC1 | -9% | 0.93
63 | COC[C@H](C)NC(=O)c1c(CCc2ccccc2)n(CCN(C)C)c(C)cc1=O | 1% | -0.07

Row | SMILES | % Inhibition | Z score
64 | O=S(=O)(NC(Cc1ccccc1)[C@H]1C[C@H](O)C1)N1CCCC1 (stereo partly drawn) | -3% | 0.73
65 | COC(=O)C(c1cccc(C#N)c1)N1CCCC(c2ncc[nH]2)C1 (stereo not drawn) | -3% | 0.39
66 | COC1CCCCC1NC(=O)COCc1ccnn1C (stereo not drawn) | -5% | 0.6
67 | CCn1c(C)cc2[nH]nc(NC(=O)c3cc(C4CC4)nn3C)c2c1=O | -2% | 0.28
68 | O=C(c1cccc(-c2ccnc3ccccc23)c1)N1CCN2CCC[C@H]2C1 | -3% | 0.39
69 | CN(C(=O)COc1ccc(Cl)cc1C(N)=O)C1=CCCC1 | 3% | -0.5
70 | Cn1cccc(C(=O)N2CCN(c3cnsn3)CC2)c1=O | -12% | 1.56
71 | c1ccc(N2CCN(C3CCN(C[C@H]4CCCCO4)CC3)CC2)cc1 | -6% | 0.77
72 | O=C(CCc1nc(-c2cc3ccccc3nc2O)no1)NCc1ccccc1 | -21% | 4.01
73 | OC[C@H](CNc1ncnc2nc[nH]c12)Cc1ccccn1 | -2% | 0.37
74 | CC(C)CCNC(=O)c1ccc(-c2nc3cccnc3n2C2CCCCC2)cc1 | -19% | 2.54
75 | O=C(Nc1ccn(CC(F)F)n1)N1CCC[C@H](C2CCOCC2)C1 | -4% | 0.73
76 | CC(C)c1nnc(CN2CCc3nocc3C2)o1 | 4% | -0.38
77 | Cc1ccc(-n2nc(-c3nc(-c4ccccc4C)no3)c3ccccc3c2=O)cc1C | -14% | 1.78
78 | Cc1noc(C)c1[C@H]1NCCn2cccc21 | 12% | -1.57
79 | c1ccc(C(CN2C[C@@H]3NCCO[C@H]3C2)c2ccccc2)cc1 | 12% | -1.63
80 | COc1cccc(C(=O)N(Cc2nccs2)C2CC2)c1O | 2% | -0.47
81 | O=C(CN1CCC[C@H](Cn2cncn2)C1)NCc1ccccn1 | 9% | -1.23
82 | CCC(CC)C(=O)NC[C@](C)(O)c1cnn(C)c1 | -5% | 0.83
83 | COc1ccccc1Nc1nc(N)nc(Cn2cnc3ccccc3c2=O)n1 | -11% | 1.6
84 | C[C@@H](CCC(C)(C)C)NC(=O)c1nnc(C(C)(C)S(C)(=O)=O)o1 | -4% | 0.55
